Assay results reported in patent EP4603109A1, “ANTIBODY-DRUG CONJUGATE, PREPARATION METHOD THEREFOR, AND USE THEREOF” (priority 2022, dated 2024).
Like-named read-outs stand apart in the source and are kept apart here. Marks after values point to notes of the source that are not given here.

Tests used:
[1] = target: T1, rat B7-H3-his (Rattus norvegicus, UniProt Q7TPB4); assay: Dynamic affinity by ForteBio (BLI); format: binding; details: Protein A sensor, 1:1 global fitting
T1 construct: His
T1 sequence (Q7TPB4 29-316): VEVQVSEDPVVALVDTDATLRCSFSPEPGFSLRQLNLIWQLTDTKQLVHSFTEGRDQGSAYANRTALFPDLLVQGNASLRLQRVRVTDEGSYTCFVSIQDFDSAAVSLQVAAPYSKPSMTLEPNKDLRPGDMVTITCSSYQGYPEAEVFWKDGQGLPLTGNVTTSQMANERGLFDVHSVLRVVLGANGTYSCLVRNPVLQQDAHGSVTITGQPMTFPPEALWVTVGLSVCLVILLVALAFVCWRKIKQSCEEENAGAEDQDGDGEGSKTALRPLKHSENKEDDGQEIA

[2] = tested on: human colon cancer cell HT29; assay: Cell affinity by flow cytometry; details: cell binding, FACS Median PE
[3] = tested on: human non-small cell lung cancer cell HCC827; assay: Cell affinity by flow cytometry; details: cell binding, FACS Median PE
[4] = tested on: Human breast squamous carcinoma cell line HCC1806; assay: In vivo efficacy of different conjugates of 2#8890 in HCC1806 model; details: HCC1806 mouse
[5] = tested on: Human breast squamous carcinoma cell line HCC1806; assay: Efficacy of different doses of ADCs in HCC1806 model; format: in vivo; details: HCC1806 mouse; for TGI (%): VP27
[6] = tested on: Human gastric cancer cells NCI-N87; assay: Efficacy of different ADCs in NCI-N87 model; format: in vivo; details: NCI-N87 mouse, 5 mg/kg i.v., QW, twice
[7] = tested on: human breast squamous cell carcinoma cell HCC1806; assay: Tumor growth inhibition in subcutaneous HCC1806 mouse CDX model; format: in vivo, Balb/cNude mice; details: 1 dose on Day 0
[8] = Hydrophilicity detection (TSKgel Butyl-NPR column); format: physicochemical; details: (retention time of sample - hydrophilic control)/(hydrophobic control - hydrophilic control); smaller = more hydrophilic
[9] = target: T2, CD32a (Homo sapiens, UniProt P12318); assay: Binding affinity to Fc receptors by ForteBio; details: SA sensor, biotinylated receptor, 1:1 fitting
T2 sequence (P12318 34-317): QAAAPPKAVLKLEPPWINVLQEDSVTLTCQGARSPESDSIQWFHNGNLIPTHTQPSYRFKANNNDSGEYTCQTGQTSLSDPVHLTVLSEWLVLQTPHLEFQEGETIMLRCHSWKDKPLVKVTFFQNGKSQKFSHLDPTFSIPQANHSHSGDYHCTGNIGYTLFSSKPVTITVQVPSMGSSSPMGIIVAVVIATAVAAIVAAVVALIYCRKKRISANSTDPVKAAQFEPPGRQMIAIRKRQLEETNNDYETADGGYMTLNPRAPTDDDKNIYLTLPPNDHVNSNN

[10] = design: species or system cynomolgus monkeys; details: cynomolgus monkey, in vivo, iv, 50 mg/kg
[11] = Repeated dose toxicity test; format: in vivo; details: cynomolgus monkeys
[12] = tested on: human gastric cancer cell NCI-N87; details: cell binding, FACS Median PE
[13] = tested on: human mammary squamous cancer cell HCC1806; details: cell binding, FACS Median PE
[14] = target: CHO-S-human B7-H3-4Ig (Homo sapiens, UniProt Q5ZPR3); details: cell binding, FACS Median PE
[15] = target: CHO-S-human B7-H3-2Ig (Homo sapiens, UniProt Q5ZPR3); details: cell binding, FACS Median PE
[16] = target: CHO-S-rat B7-H3 (Rattus norvegicus, UniProt Q7TPB4); details: cell binding, FACS Median PE
[17] = tested on: CHO-S-monkey B7-H3; details: cell binding, FACS Median PE
[18] = tested on: human gastric cancer cell NCI-N87; details: endocytosis, pHrodo, 24 h, Median YL-1H
[19] = tested on: human mammary squamous carcinoma cell HCC1806; details: endocytosis, pHrodo, 24 h, Median YL-1H
[20] = tested on: human non-small cell lung cancer cell HCC827; details: endocytosis, pHrodo, 24 h, Median YL-1H
[21] = i.v. 30 mg/kg QW x2, then 50 mg/kg QW x2

Chain of CHO-S-human B7-H3-4Ig (Q5ZPR3 29-534): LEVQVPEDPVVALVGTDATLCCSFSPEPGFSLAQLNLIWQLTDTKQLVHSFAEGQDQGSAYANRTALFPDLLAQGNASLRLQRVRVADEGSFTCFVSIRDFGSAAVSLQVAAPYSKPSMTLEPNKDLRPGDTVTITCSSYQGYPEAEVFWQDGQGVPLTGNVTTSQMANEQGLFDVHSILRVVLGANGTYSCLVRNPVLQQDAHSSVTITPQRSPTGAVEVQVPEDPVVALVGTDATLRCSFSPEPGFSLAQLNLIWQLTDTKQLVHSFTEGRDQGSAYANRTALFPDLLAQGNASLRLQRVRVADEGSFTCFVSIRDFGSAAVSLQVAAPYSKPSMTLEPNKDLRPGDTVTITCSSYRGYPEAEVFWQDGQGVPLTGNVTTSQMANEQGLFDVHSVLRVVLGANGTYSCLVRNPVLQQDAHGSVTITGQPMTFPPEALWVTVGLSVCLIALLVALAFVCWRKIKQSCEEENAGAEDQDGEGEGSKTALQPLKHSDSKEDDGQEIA
Chain of CHO-S-human B7-H3-2Ig (Q5ZPR3 29-316 isoform Q5ZPR3-2 limits assumed): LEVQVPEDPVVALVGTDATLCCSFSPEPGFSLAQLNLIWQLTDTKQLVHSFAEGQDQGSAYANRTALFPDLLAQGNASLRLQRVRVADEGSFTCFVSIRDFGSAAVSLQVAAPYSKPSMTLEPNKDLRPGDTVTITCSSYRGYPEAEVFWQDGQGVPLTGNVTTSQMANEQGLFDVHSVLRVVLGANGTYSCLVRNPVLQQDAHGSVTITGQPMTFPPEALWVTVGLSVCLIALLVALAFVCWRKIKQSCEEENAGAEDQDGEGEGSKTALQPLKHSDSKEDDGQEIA

B1: ADC 5 (conjugate)
heavy: QVQLQESGPGLVQPSGTLSLTCAVSGGSDSSTNWWTWVRQSPGQGLEWIGEISPIGFTSYSPSLRSRVTISVDKSKTQFSLKLSSVTAADTAVYYCARDRLYFAFWGQGTLVTVSSASTKGPSVFPLAPSSKSTSGGTAALGCLVKDYFPEPVTVSWNSGALTSGVHTFPAVLQSSGLYSLSSVVTVPSSSLGTQTYICNVNHKPSNTKVDKKV[human IgG1 Fc with L234A L235A G237A (EU numbers) left out here]
light: EIVMTQSPATLSVSPGERATLSCRASQSVSSNLAWYQQKPGQAPRLLIYGASTRATGIPDRFSGSGSGTEFTLTISSLESEDFAVYYCQQYNNWPITFGQGTRLEIKRTVAAPSVFIFPPSDEQLKSGTASVVCLLNNFYPREAKVQWKVDNALQSGNSQESVTEQDSKDSTYSLSSTLTLSKADYEKHKVYACEVTHQGLSSPVTKSFNRGEC
- Rat B7-H3-his KD (M) [1]: Not bond
- EC50 (ng/ml) HT29 [2]: 2.335 ng/mL
- EC50 (ng/ml) HCC827 [3]: 7.579 ng/mL
- TGI (%) ([4]; 5 mg/kg i.v. once (DAR8 group), VP52): 195.97** %
- tumors of mice 95 days after a single dose ([4]; 5 mg/kg i.v. once, 95 days): completely disappeared
- VP52(mm^3, mean±SEM) ([4]; tumor volume, 5 mg/kg i.v. once (DAR8 group)): 6.10±3.98 mm^3
- TGI (%) ([5]; 0.5 mg/kg i.v. once): 37.11%
- TGI (%) ([5]; 5 mg/kg i.v. once): 174.17* * %
- VP27 (mm^3, mean±SEM) ([5]; tumor volume, 5 mg/kg i.v. once): 44.57±7.16 mm^3
- TGI (%) ([6]; VP42): 66.45** %
- VP42 (mm^3, mean±SEM) ([6]; tumor volume): 532.12±102.51 mm^3
- T/C (%) ([7]; Day 14, 3 mg/kg i.v.): 16.99%
- TGI (%) ([7]; Day 14, 3 mg/kg i.v.): 96.68%
- Tumor volume (mm^3) (x±SEM) ([7]; Day 14, 3 mg/kg i.v.): 218.24±57.69 mm^3
- Hydrophobicity value [8]: 1.36
- KD (M) CD32a [9]: Not bond
- CL F obs [10]: 347.008 L/h/kg
- findings during the recovery period ([11]; after 30 mg/kg QW x2 and 50 mg/kg QW x2): recovery trend
- findings during the administration period [11, 21]: loss of appetite, hair loss, skin pigmentation and weight loss
- haematology changes in female monkeys [11, 21]: WBC, NEUT, LYM, and MONO were reduced
- haematology changes in male monkeys [11, 21]: RBC, HGB, and HCT were reduced in male monkeys, and FGB was increased
- highest no serious toxicity dose (HNSTD) ([11]; i.v. 30 mg/kg once a week x2, then 50 mg/kg once a week x2): 50 mg/kg
- EC50(ng/ml) NCI-N87 [12]: 2.329 ng/mL
- EC50(ng/ml) HCC1806 [13]: 3.129 ng/mL
- EC50 (ng/ml) CHOS-B7-H3-4Ig [14]: 41.48 ng/mL
- EC50 (ng/ml) CHOS-B7-H3-2Ig [15]: 26.89 ng/mL
- EC50 (ng/ml) CHOS-rat B7-H3 [16]: Not bond
- EC50 (ng/ml) CHOS-monkey B7-H3 [17]: 31.85 ng/mL
- EC50(ng/ml) NCI-N87 [18]: 7.984 ng/mL
- EC50(ng/ml) HCC1806 [19]: 10.91 ng/mL
- EC50 (ng/ml) HCC827 [20]: 9.835 ng/mL

B2: ADC 17 (conjugate)
heavy: B1 heavy
light: B1 light
- Rat B7-H3-his KD (M) [1]: Not bond
- EC50 (ng/ml) HT29 [2]: 3.213 ng/mL
- EC50 (ng/ml) HCC827 [3]: 8.054 ng/mL
- T/C (%) ([7]; Day 14, 3.32 mg/kg i.v.): 25.40%
- TGI (%) ([7]; Day 14, 3.32 mg/kg i.v.): 86.69%
- Tumor volume (mm^3) (x±SEM) ([7]; Day 14, 3.32 mg/kg i.v.): 329.35±72.16 mm^3
